Test results: the supplement of paper PMC10037445
Values joined by “and” are separate entries in the source; they are usually repeats but may differ in a detail not shown here. Equal values may be shown once. Over roughly 2,900 compounds, “NF-kB SEAP reporter activity, fold change vs agonist alone” has its median near 0.99; the highest 2% begin near 2.6. Some of the results follow.

Legend:
[1] = system: RAW-Dual; test: NF-kB SEAP reporter activity, fold change vs agonist alone; cytotoxicity flag (confluency mask): not cytotoxic; higher = enhanced NF-kB activity
Summary of the method: (§1)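 Library stock was pin-tooled at 50 nL into 384-well plates of RAW-Dual macrophages (50,000 cells/well, DMEM), followed 1 h later by a PRR agonist, and the cells were kept at 37 °C, 5% CO2. Supernatant collected after 20 hours was read for IRF by QuantiLuc luminescence and for NF-κB by QuantiBlue absorbance at 620 nm. Reporter activity is fold change over agonist-alone wells, and a well counted as cytotoxic when its IncuCyte confluency was below 70% of agonist controls in both mask sets.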

[2] = system: RAW-Dual; test: NF-kB SEAP reporter activity, fold change vs agonist alone; higher = enhanced NF-kB activity; conditions: library stock concentration (final ~1000-fold dilution): 10 mM
Summary of the method: as §1

[3] = system: RAW-Dual; test: NF-kB SEAP reporter activity, fold change vs agonist alone; cytotoxicity flag (confluency mask): cytotoxic (confluency <70% of control); higher = enhanced NF-kB activity
Summary of the method: as §1

[4] = agonist: ODN 1826 (TLR9) 0.5 ug/mL
[5] = agonist: Pam2CSK4 (TLR2/6) 0.1 ug/mL
[6] = agonist: Pam3CSK4 (TLR2/1) 0.1 ug/mL
[7] = cytotoxicity flag (confluency mask): not cytotoxic, agonist: Imiquimod (TLR7) […]
[8] = cytotoxicity flag (confluency mask): not cytotoxic, agonist: MPLA (TLR4) […]

Q: How did the “NF-kB SEAP reporter activity” value ([1]; agonist: LPS (TLR4) 0.1 ug/mL) turn out when `O=C1O[C@H]([C@@H](O)CO)C(O)=C1OP(=O)(O)O` (library stock concentration (final ~1000-fold dilution): 10 mM water) was run?
A: Its value is 1.23.

Q: What about the “NF-kB SEAP reporter activity” value [1, 4] of the same compound?
A: Its value is 1.19.

Q: And the “NF-kB SEAP reporter activity” value [1, 5]?
A: The value was 1.16.

Q: And the “NF-kB SEAP reporter activity” value [1, 6]?
A: The value was 1.21.

Q: What does the source list for `COc1nccc(-c2c(-c3ccc(F)cc3)ncn2C2CCC(O)CC2)n1` (centres undefined)?
A: NF-kB SEAP reporter activity [2, 7]: 0.875; NF-kB SEAP reporter activity [2, 8]: 1.36

Q: With `COc1nccc(-c2c(-c3ccc(F)cc3)ncn2C2CCC(O)CC2)n1` (centres undefined) (library stock concentration (final ~1000-fold dilution): 10 mM) as the compound, how does the “NF-kB SEAP reporter activity” value ([1]; agonist: LPS (TLR4) 0.1 ug/mL) read?
A: The value was 1.81.

Q: What about the “NF-kB SEAP reporter activity” value [1, 4] of the same compound?
A: The value was 0.861.

Q: What about the “NF-kB SEAP reporter activity” value [1, 5] of the same compound?
A: The value was 0.565.

Q: What about the “NF-kB SEAP reporter activity” value [1, 6] of the same compound?
A: The value was 0.724.

Q: With `CCC1(c2cnc[nH]2)Cc2ccccc2C1` (library stock concentration (final ~1000-fold dilution): 10 mM) as the compound, how does the “NF-kB SEAP reporter activity” value ([1]; agonist: LPS (TLR4) 0.1 ug/mL) read?
A: Its value is 0.919.

Q: And the “NF-kB SEAP reporter activity” value [1, 4]?
A: Its value is 0.802.

Q: And the “NF-kB SEAP reporter activity” value [1, 5]?
A: Its value is 0.988.

Q: What about the “NF-kB SEAP reporter activity” value [1, 6] of the same compound?
A: Its value is 0.782.

Q: With `CCC1(c2cnc[nH]2)Cc2ccccc2C1` as the compound, how does the “NF-kB SEAP reporter activity” value [2, 8] read?
A: Its value is 0.967.

Q: For `CC(N)c1ccc(C(=O)Nc2ccnc3[nH]ccc23)cc1.Cl.Cl` (centres undefined), which “NF-kB SEAP reporter activity” value ([2]; cytotoxicity flag (confluency mask): cytotoxic (confluency <70% of control), agonist: Imiquimod (TLR7) […]) is on record?
A: The value was 0.387.

Q: And the “NF-kB SEAP reporter activity” value ([2]; cytotoxicity flag (confluency mask): cytotoxic (confluency <70% of control), agonist: MPLA (TLR4) […])?
A: The value was 0.348.

Q: How did the “NF-kB SEAP reporter activity” value ([3]; agonist: LPS (TLR4) 0.1 ug/mL) turn out when `CC(N)c1ccc(C(=O)Nc2ccnc3[nH]ccc23)cc1.Cl.Cl` (centres undefined) (library stock concentration (final ~1000-fold dilution): 10 mM) was run?
A: Its value is 0.262.

Q: What about the “NF-kB SEAP reporter activity” value [3, 4] of the same compound?
A: The value was 0.309.

Q: What about the “NF-kB SEAP reporter activity” value [3, 5] of the same compound?
A: Its value is 0.121.

Q: What about the “NF-kB SEAP reporter activity” value [3, 6] of the same compound?
A: The value was 0.148.

Q: Which results are given for `CC(C)(C)C1NC(=O)OC2CCCC2OC/C=C/C(F)(F)c2nc3ccccc3nc2OC2CC(C(=O)NC3(C(=O)NS(=O)(=O)C4(C)CC4)CC3C(F)F)N(C2)C1=O` (centres undefined) (library stock concentration (final ~1000-fold dilution): 10 mM)?
A: NF-kB SEAP reporter activity ([1]; agonist: LPS (TLR4) 0.1 ug/mL): 1.29; NF-kB SEAP reporter activity [1, 4]: 2.62; NF-kB SEAP reporter activity [1, 5]: 0.986; NF-kB SEAP reporter activity [1, 6]: 2.09

Q: `CC(C)(C)C1NC(=O)OC2CCCC2OC/C=C/C(F)(F)c2nc3ccccc3nc2OC2CC(C(=O)NC3(C(=O)NS(=O)(=O)C4(C)CC4)CC3C(F)F)N(C2)C1=O` (centres undefined) was tested. Which “NF-kB SEAP reporter activity” value [2, 7] did it give?
A: Its value is 2.27.

Q: And the “NF-kB SEAP reporter activity” value [2, 8]?
A: The value was 2.15.

Q: How did the “NF-kB SEAP reporter activity” value ([1]; agonist: LPS (TLR4) 0.1 ug/mL) turn out when `CC(=O)OC1(C(C)=O)CCC2C3C=C(Cl)C4=CC(=O)C5CC5C4(C)C3CCC21C` (centres undefined) (library stock concentration (final ~1000-fold dilution): 10 mM) was run?
A: The value was 1.2.

Q: And the “NF-kB SEAP reporter activity” value [1, 4]?
A: The value was 1.01.

Q: What about the “NF-kB SEAP reporter activity” value [1, 5] of the same compound?
A: Its value is 0.777.

Q: What about the “NF-kB SEAP reporter activity” value [1, 6] of the same compound?
A: Its value is 1.08.

Q: `CC(=O)OC1(C(C)=O)CCC2C3C=C(Cl)C4=CC(=O)C5CC5C4(C)C3CCC21C` (centres undefined) was tested. Which “NF-kB SEAP reporter activity” value [2, 7] did it give?
A: Its value is 1.26.

Q: What about the “NF-kB SEAP reporter activity” value [2, 8] of the same compound?
A: Its value is 1.21.

Q: How did the “NF-kB SEAP reporter activity” value [2, 7] turn out when `CCCOc1ccc(S(=O)(=O)NCCC2CCCN2C)cc1-c1nc(=O)c2c([nH]1)c(CCC)nn2C` (centres undefined) was run?
A: The value was 1.42.

Q: And the “NF-kB SEAP reporter activity” value [2, 8]?
A: Its value is 1.28.

Q: Which results are given for `CCCOc1ccc(S(=O)(=O)NCCC2CCCN2C)cc1-c1nc(=O)c2c([nH]1)c(CCC)nn2C` (centres undefined) (library stock concentration (final ~1000-fold dilution): 10 mM)?
A: NF-kB SEAP reporter activity ([1]; agonist: LPS (TLR4) 0.1 ug/mL): 1.02; NF-kB SEAP reporter activity [1, 4]: 0.517; NF-kB SEAP reporter activity [1, 5]: 0.99; NF-kB SEAP reporter activity [1, 6]: 1.14

Q: Which “NF-kB SEAP reporter activity” value ([1]; agonist: LPS (TLR4) 0.1 ug/mL) does the source give for `O=C(O)Cc1ccc(-c2ccccc2)cc1` (library stock concentration (final ~1000-fold dilution): 10 mM) here?
A: The value was 0.989.

Q: What about the “NF-kB SEAP reporter activity” value [1, 4] of the same compound?
A: The value was 1.01.

Q: And the “NF-kB SEAP reporter activity” value [1, 5]?
A: Its value is 1.

Q: And the “NF-kB SEAP reporter activity” value [1, 6]?
A: Its value is 1.01.

Q: How did the “NF-kB SEAP reporter activity” value [2, 7] turn out when `O=C(O)Cc1ccc(-c2ccccc2)cc1` was run?
A: Its value is 1.15.

Q: What about the “NF-kB SEAP reporter activity” value [2, 8] of the same compound?
A: The value was 1.04.

Q: Which “NF-kB SEAP reporter activity” value [2, 7] does the source give for `CCN(CC)CC#CCOC(=O)C(O)(c1ccccc1)C1CCCCC1.Cl` (centres undefined) here?
A: Its value is 1.75.

Q: What about the “NF-kB SEAP reporter activity” value [2, 8] of the same compound?
A: The value was 1.46.

Q: Which results are given for `CCN(CC)CC#CCOC(=O)C(O)(c1ccccc1)C1CCCCC1.Cl` (centres undefined) (library stock concentration (final ~1000-fold dilution): 10 mM)?
A: NF-kB SEAP reporter activity ([1]; agonist: LPS (TLR4) 0.1 ug/mL): 2.01; NF-kB SEAP reporter activity [1, 4]: 0.958; NF-kB SEAP reporter activity [1, 5]: 0.963; NF-kB SEAP reporter activity [1, 6]: 1.3

Q: Which “NF-kB SEAP reporter activity” value [2, 7] does the source give for `Cc1nnc(C(=O)NC(C)(C)c2nc(C(=O)NCc3ccc(F)cc3)c(O)c(=O)n2C)o1` here?
A: The value was 0.948.

Q: For `Cc1nnc(C(=O)NC(C)(C)c2nc(C(=O)NCc3ccc(F)cc3)c(O)c(=O)n2C)o1` (library stock concentration (final ~1000-fold dilution): 10 mM), which “NF-kB SEAP reporter activity” value ([1]; agonist: LPS (TLR4) 0.1 ug/mL) is on record?
A: The value was 1.03 and 0.963.

Q: And the “NF-kB SEAP reporter activity” value [1, 4]?
A: The value was 1.01 and 1.12.

Q: And the “NF-kB SEAP reporter activity” value [1, 5]?
A: Its value is 1.07 and 1.12.

Q: What about the “NF-kB SEAP reporter activity” value [1, 6] of the same compound?
A: The value was 1.07 and 1.25.

Q: `CC(=O)OC1CC2(C)C(CC(O)C3C4(C)CCC(O)C(C)C4CCC32C)/C1=C(\CCC=C(C)C)C(=O)O` (centres undefined) was tested. Which “NF-kB SEAP reporter activity” value [2, 7] did it give?
A: The value was 0.937.

Q: What about the “NF-kB SEAP reporter activity” value [2, 8] of the same compound?
A: Its value is 0.977.

Q: `CC(=O)OC1CC2(C)C(CC(O)C3C4(C)CCC(O)C(C)C4CCC32C)/C1=C(\CCC=C(C)C)C(=O)O` (centres undefined) (library stock concentration (final ~1000-fold dilution): 10 mM) was tested. Which “NF-kB SEAP reporter activity” value ([1]; agonist: LPS (TLR4) 0.1 ug/mL) did it give?
A: Its value is 0.844.

Q: And the “NF-kB SEAP reporter activity” value [1, 4]?
A: Its value is 0.976.

Q: What about the “NF-kB SEAP reporter activity” value [1, 5] of the same compound?
A: The value was 0.952.

Q: What about the “NF-kB SEAP reporter activity” value [1, 6] of the same compound?
A: The value was 0.905.

Q: Which “NF-kB SEAP reporter activity” value ([1]; agonist: LPS (TLR4) 0.1 ug/mL) does the source give for `C=C1C(=O)OC2/C=C(\C)CC/C=C(\C)CCC12` (centres undefined) (library stock concentration (final ~1000-fold dilution): 10 mM) here?
A: Its value is 0.231.

Q: And the “NF-kB SEAP reporter activity” value [1, 4]?
A: The value was 0.213.

Q: And the “NF-kB SEAP reporter activity” value [1, 5]?
A: Its value is 0.153.

Q: And the “NF-kB SEAP reporter activity” value [1, 6]?
A: Its value is 0.197.

Q: For `C=C1C(=O)OC2/C=C(\C)CC/C=C(\C)CCC12` (centres undefined), which “NF-kB SEAP reporter activity” value [2, 7] is on record?
A: Its value is 0.262.

Q: And the “NF-kB SEAP reporter activity” value [2, 8]?
A: Its value is 0.198.

Q: Which results are given for `COC(=O)c1ccc2c(c1)nc(NC(=O)c1ccccc1)n2CCCc1ccccc1` (library stock concentration (final ~1000-fold dilution): 10 mM)?
A: NF-kB SEAP reporter activity ([1]; agonist: LPS (TLR4) 0.1 ug/mL): 0.363; NF-kB SEAP reporter activity [1, 4]: 0.729; NF-kB SEAP reporter activity [1, 5]: 0.316; NF-kB SEAP reporter activity [1, 6]: 0.431

Q: `COC(=O)c1ccc2c(c1)nc(NC(=O)c1ccccc1)n2CCCc1ccccc1` was tested. Which “NF-kB SEAP reporter activity” value [2, 7] did it give?
A: The value was 0.865.

Q: What about the “NF-kB SEAP reporter activity” value [2, 8] of the same compound?
A: The value was 0.827.
